Measured values: PubChem BioAssay AID1865 (National Center for Advancing Translational Sciences (NCATS), 2009)
Out of some 280,000 compounds screened, about 540 (0.19%) were called active. Roughly 2% stayed inconclusive and do not appear here. Calls come from the whole dose curve; as a rule, active = well fitted activation curve with a large enough effect; inconclusive = small, poorly fitted or top-dose-only effect; inactive = flat fitted curve, though single readings scatter. The entries are a selection whose mix differs from that of the whole data set.

Assay: Quantitative High-Throughput Screen for Regulators of Epigenetic Control; note: nearly all actives have a fitted effect of over 60% in size; for GFP activation: % of control where 0% means no effect
Conditions: murine LDR cells, GFP reporter derepression, 30 h; series mostly up to 53.9 µM; GFP activation: at the top concentration
Excerpt: NIH Molecular Libraries Screening Centers Network [MLPCN] NIH Chemical Genomics Center [NCGC] MLSCN Grant: 1 X01 MH079860-01 Assay Provider: Elisabeth D. Martinez, University of Texas SW Medical Center NCGC Assay Overview: The Locus Derepression (LDR) assay detects the derepression or induction of a GFP reporter that is stably integrated in a genomic region of murine cells that is presumably silenced. Transcription of the GFP reporter is controlled by a CMV promoter, which normally is constitutively active. However, this cell line, termed LDR, was selected for lack of constitutive production of GFP. GFP production can be induced by incubating the cells with histone deacetylase or DNA methyltransferase inhibitors (Martinez et al., 2006). Compounds that derepress or induce this reporter locus are identified by enumerating GFP positive cells using a laser-scanning microplate cytometer (Auld et al., 2006). This assay was screened against the MLSMR earlier (AID 597; (Johnson et al., 2008) and has been rescreened here against the expanded collection.
NCGC Assay Protocol Summary: Three hundred LDR cells in 5 uL per well were dispensed into black, clear-bottom 1536-well plates. Twenty-three nL compound was transferred to the assay plate and cells were incubated 30 hours at 37 C. Medium was removed, cells were washed two times with PBS, and GFP-positive cells were enumerated as fluorescent objects between the sizes of 20 to 120 um width and depth using an Acumen Explorer. References Auld, DS, Johnson, RL, Zhang, YQ, Veith, H, Jadhav, A, Yasgar, A, Simeonov, A, Zheng, W, Martinez, ED, Westwick, JK, Austin, CP, Inglese, J (2006). Fluorescent protein-based cellular assays analyzed by laser-scanning microplate cytometry in 1536-well plate format. Methods Enzymol 414: 566-89. Johnson, RL, Huang, W, Jadhav, A, Austin, CP, Inglese, J, Martinez, ED (2008). A quantitative high-throughput screen identifies potential epigenetic modulators of gene expression. Anal Biochem 375: 237-48. Martinez, ED, Dull, AB, Beutler, JA, Hager, GL (2006). High-content fluorescence-based screening for epigenetic modulators. Methods Enzymol 414: 21-36.
Potency is the fitted concentration of half-maximal effect.

| Structure (SMILES) | GFP activation | Potency |
| --- | --- | --- |
| CCCCc1[nH]c(=O)c(C#N)c2c1CSC(C)(C)C2 | inactive: -4.84% | – |
| Nc1c(N2CCCC2)cc(Cl)c2nonc12 | inactive: -6.59% | – |
| CC(=Nc1ccccc1)c1sc2ccccc2c1O | inactive: 1.28% | – |
| COc1ccc2c(C=Nc3c(C)n(C)n(-c4ccccc4)c3=O)c(O)n(Cc3ccco3)c(=O)c2c1 | inactive: -1.08% | – |
| COC(=O)[C@H]1C(OC)[C@@H](OC(=O)c2cc(OC)c(OC)c(OC)c2)C[C@@H]2CN3CCc4c([nH]c5cc(OC)ccc45)[C@H]3C[C@H]21 (stereo partly specified) | inactive: 7.41% | – |
| CCOC(=O)c1c(NC(=O)CC2Nc3cc(C)c(C)cc3NC2=O)sc(C)c1C (stereo unspecified) | – | active: 8.91 µM |
| CCN(CC)c1ccc2nc3c(=O)n(C)c(=O)n(C)c3nc2c1 | – | active: 12.6 µM |
| CN1CCN(C(=O)c2cc3c(ccc4ccccc43)oc2=O)CC1 | inactive: -7.55% | – |
| CS(=O)(=O)N1CCN(C(=O)c2c(F)cccc2F)CC1 | inactive: 0% | – |
| COc1ccccc1NC(=O)c1ccc(S(=O)(=O)N(C)C)cc1 | inactive: -0.901% | – |
| O=C1S/C(=C/c2ccc(N3CCOCC3)o2)C(=O)N1Cc1c(F)cccc1Cl | – | active: 2.51 µM |
| CC(c1ccccc1)C1C(C#N)=C(N)SC(N)=C1C#N (stereo unspecified) | inactive: -1.75% | – |
| CCCCCCCCNC(C)C(O)c1ccc(SC(C)C)cc1 (stereo unspecified) | inactive: 1.33% | – |
| O=C(NCc1ccccc1Cl)c1ccc(Nc2nc3ccccc3n3nnnc23)cc1 | – | active: 10 µM |
| COc1ccc(-[n+]2c(C)cc(/C=C3\Sc4ccccc4N3C)cc2C)cc1 | – | active: 3.16 µM |
| CC[n+]1c(/C=C/c2c[nH]c3ccccc23)ccc2cc(C)ccc21 | – | active: 4.47 µM |
| COc1ccc2cc(C#N)c(NC(C)C)nc2c1 | inactive: -15.9% | – |
| COc1cc(C2NC(=O)NC(c3ccccc3)=C2C(C)=O)ccc1OCC#N (stereo unspecified) | inactive: 2.56% | – |
| Cc1cc(C)c(C)c(S(=O)(=O)Nc2ccccc2C(=O)O)c1C | inactive: -1.43% | – |
| COC(=O)c1cc2occc2n1Cc1nc(-c2cccc(Cl)c2)oc1C | inactive: -4.29% | – |
| Cn1cc(C2=C(c3cn(CCCSC(=N)N)c4ccccc34)C(=O)NC2=O)c2ccccc21 | inactive: 0% | – |
| NC(=O)c1c(-c2ccccc2)oc2ccc(O)cc12 | inactive: -11.1% | – |
| BrC(/C=N/Nc1nc(N2CCOCC2)nc(N2CCOCC2)n1)=C/c1ccccc1 | inactive: 1.69% | – |
| COc1ccc(NC(=O)CSc2nc3c(oc4ccccc43)c(=O)n2Cc2ccco2)cc1Cl | – | active: 3.55 µM |
| COc1ccc(S(=O)(=O)N2CCCC2C(=O)Nc2ccc(C)cc2)cc1 (stereo unspecified) | inactive: -12.7% | – |
| O=C(O)CCC(=O)N1CCC[C@H]1C(=O)O | inactive: 0% | – |

| Structure (SMILES) | GFP activation | Potency |
| --- | --- | --- |
| O=C1NCN(c2ccccc2)C12CCN(CCCC(c1ccc(F)cc1)c1ccc(F)cc1)CC2 | – | inactive |
| CCOC(=O)C(C)Sc1ccc2nnc(CCNS(=O)(=O)c3ccc(C)cc3)n2n1 (stereo unspecified) | inactive: -5.88% | – |
| CCOc1ccc2c(c1)C(C)=CC(C)(C)N2 | inactive: 0.348% | – |
| O=C(Nc1cccc(OCc2cc(=O)n3c4c(sc3n2)CCCC4)c1)c1ccc(F)cc1 | – | active: 25.1 µM |
| Cc1cc(C2CCCCC2)n(O)c(=O)c1 | inactive: 5.33% | – |
| CC(C)(C)c1ccc(Oc2nc3ccccn3c(=O)c2/C=C(\C#N)c2nc3ccccc3[nH]2)cc1 | – | active: 25.1 µM |
| COC(=O)c1ccccc1SC(CC(=O)c1ccccc1)c1ccc(F)cc1 (stereo unspecified) | – | active: 22.4 µM |
| CCCC[C@H]1C(=O)N(c2ccccc2)N(c2ccc(O)cc2)C1=O | inactive: 1.37% [at 16.9 µM] | – |
| COc1ccc(N2CCN(S(=O)(=O)c3ccc(OC)c(-c4noc(C)n4)c3)CC2)cc1 | – | active: 5.01 µM |
| C/C(=N\NC(=O)C(C)Oc1ccc([N+](=O)[O-])cc1)c1ccccn1 (stereo unspecified) | – | active: 15.8 µM |
| CCOCCc1nnc(NC(=O)c2ccc(OC)c(OC)c2)s1 | inactive: -14.3% | – |
| C=C1C(=O)O[C@@H]2[C@H]3O[C@]3(C)CC/C=C(\C)CC[C@@H]12 | inactive: 0% | – |
| CCCCCCCCCCCCCCCC(=O)NCCO | – | inactive |
| Cc1nn(C)cc1CNC(=O)c1ccc(Br)o1 | inactive: -11.6% | – |
| CCCc1[nH]nc2c1C1(CCOC1C)C(C#N)=C(N)O2 (stereo unspecified) | inactive: -12.1% | – |
| CCOC(=O)c1ccc(N=c2sc(C(=O)OC)cc(=O)n2CCCN2CCOCC2)cc1 | inactive: 8.74% | – |
| CCCCCCCCCCCCCCCC(=O)NCCc1ccc(O)c(O)c1 | inactive: 7.67% | – |
| CCN(CCCNC(=O)COc1cc(=O)n(CC)c2ccccc12)Cc1ccccc1 | inactive: 3.17% | – |
| COc1cccc(NC(=O)CSc2c3c(nc4ccccc24)CCCC3)c1 | inactive: 6.55% | – |
| Cc1nn(C(=O)c2ccoc2C)c(N)c1-c1ccccc1 | inactive: -1.01% | – |
| Cc1ccc(-c2cccc(NC(=O)C3C4C=CC(C4)C3C(=O)O)c2)o1 (stereo unspecified) | inactive: 1.03% | – |
| O=C(CCN1C(=O)/C(=C\c2cccs2)SC1=S)Nc1ccccn1 | inactive: 8.23% | – |
| Cc1ccc2nc(SCC(=O)Nc3ccc4sc(C)nc4c3)c(C#N)cc2c1 | – | active: 5.62 µM |
| O=c1c2cn[nH]c2nc(SCc2c(F)cccc2F)n1-c1ccc(Cl)cc1 | inactive: -6.53% | – |
| Cc1ccc(-c2nc(SCC(=O)NCC3CCCO3)c(-c3ccc(C)cc3)[nH]2)cc1 (stereo unspecified) | inactive: 1.71% | – |
